Laboratory results from PubChem BioAssay AID504832 (National Center for Advancing Translational Sciences (NCATS), 2011).
In all, about 310,000 compounds went through this assay and about 18,000 (5.8%) were called active. The shares of active, inactive and inconclusive entries below differ from those in the screen. Calls come from the whole dose curve; as a rule, active = well fitted inhibition curve with a large enough effect; inconclusive = small, poorly fitted or top-dose-only effect, or another doubt; inactive = no such curve, though single readings can be large or run the other way. Potencies of inconclusive entries are left out as doubtful fits.
% is set by controls: 0 for no effect and ±100 for the full control effect; potency is the fitted concentration of half-maximal effect; tags give direction and shape of the fitted curve.

Assay: Primary qHTS for delayed death inhibitors of the malarial parasite plastid, 48 hour incubation
Settings: P. falciparum luciferase growth in erythrocytes; series mostly up to 28.7 µM; activity change, negative = inhibition: at the top concentration
Summary of the method: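 A one-generation exposure of luciferase-tagged malaria parasites in RPMI 1640/Albumax erythrocyte culture, 37 C and 5% CO2. Inhibition is inferred from decreased luminescence after adding detection reagent.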
With `CCOC(=O)C1CCN(C(=O)c2cc(C(C)(C)C)nn2Cc2ccccc2)CC1` the Potency was active: 1.17 µM.
For `CCOC(=O)C1=C(C)NC(C)=C(C(=O)OCC)C1c1cccs1`, the Potency was active: 9.28 µM.
With `CC12CCC(C(=O)O)(c3nc(C#N)c(C#N)nc31)C2(C)C` (stereo not given) the Potency was inconclusive [inhibitor, single point].
In the case of `CC1=NN(c2ccccc2)C(=O)C1C(=O)c1ccc(Cl)cc1` (stereo not given), the “activity change, negative = inhibition” value is reported as inactive: 10.8%.
For `CN(C)c1ccc(/C=C2\C(=N)N3C(=NC2=O)Sc2cc(S(C)(=O)=O)ccc23)cc1`, the “activity change, negative = inhibition” value was inactive: -12.9%.
With `Cc1cc(C)c(S(=O)(=O)NCC(c2cccnc2)N2CCN(Cc3ccccc3)CC2)c(C)c1` (stereo not given) the Potency was inconclusive [inhibitor, full curve].
In the case of `O=C(CN1CCN(c2ccccn2)CC1)Nc1cccc(S(=O)(=O)N2CCCC2)c1`, the Potency is reported as inconclusive [inhibitor, partial curve].
With `Cc1ccc(N/N=C(\C#N)C(N)=S)c(C)c1` the “activity change, negative = inhibition” value was inactive: 4.21%.
For `Cc1ccc(S(=O)(=O)Cn2nnnc2C(C(C)C)N2CCC(C(N)=O)CC2)cc1` (stereo not given), the “activity change, negative = inhibition” value was inactive: 8.35%.
For `CCOC(=O)C1=C(COC(=O)/C=C/c2cccc(Br)c2)NC(=O)NC1C` (stereo not given), the Potency was inconclusive [inhibitor, single point].
For `O=C(c1cccc(C(F)(F)F)c1)c1c[nH]c(C(=O)NCC2CCCO2)c1` (stereo not given), the Potency was inconclusive [inhibitor, partial curve].
In the case of `O=C(CN1C(=O)COc2ccc(Cl)cc21)N1CCCCC1`, the Potency is reported as inconclusive [inhibitor, single point].
With `COc1ccc(CCN(C)C2CCCN(S(=O)(=O)c3ccccc3F)C2)cc1OC` (stereo not given) the Potency was inconclusive [inhibitor, partial curve, poor fit].
With `CCc1ccc(NC(=O)c2cnc(N3CCN(c4ccccn4)CC3)c3ccccc23)cc1` the Potency was inconclusive [inhibitor, partial curve].
With `CC(C)C1CC(C(F)(F)F)n2nc(C(=O)O)cc2N1` (stereo not given) the “activity change, negative = inhibition” value was inactive: 3.08%.
With `N#Cc1ccccc1-c1ccccc1C(=O)N1CCCCC1` the “activity change, negative = inhibition” value was inactive: -20.4%.
For `O=C(NC1CCN(Cc2ccccc2)CC1)c1cccc(Br)c1`, the “activity change, negative = inhibition” value was inactive: 10.1%.
For `CN1C[C@H](C(=O)N[C@]2(C)O[C@@]3(O)[C@@H]4CCCN4C(=O)[C@H](Cc4ccccc4)N3C2=O)C[C@@H]2c3cccc4[nH]cc(c34)C[C@H]21`, the Potency was active: 7.57 µM.
For `CCN1C(=NCCN2CCOCC2)N[C@@H](CCc2ccccc2)C(C(=O)OC)=C1C`, the Potency was inconclusive [inhibitor, full curve, poor fit].
For `O=C(COc1cccc(C(F)(F)F)c1)NNC(=O)Cc1ccc(S(=O)(=O)N2CCOCC2)s1`, the Potency was active: 13.1 µM.
In the case of `COc1cc(C(=S)N2CCOCC2)cc(OC)c1OC(=O)c1cccc(C)c1`, the Potency is reported as inconclusive [inhibitor, full curve].
With `O=C(Nc1ccc(-n2cccn2)cc1)C1CCCCN1Cc1cccc2cccnc12` (stereo not given) the Potency was inconclusive [inhibitor, partial curve].
In the case of `O=C(CCc1nc2ccccc2c(=O)[nH]1)NCC(=O)Nc1ccc(F)c(F)c1`, the Potency is reported as inconclusive [inhibitor, single point].
For `CC(OC(=O)Cn1cnc2c1c(=O)n(C)c(=O)n2C)C(=O)NC(C)c1ccc(Cl)cc1Cl` (stereo not given), the Potency was inconclusive [inhibitor, single point].
With `O=C(N/N=C/c1cccc(Br)c1)c1ccc(Br)cc1` the “activity change, negative = inhibition” value was inactive: -4.23%.
For `CCCc1c(C)c(C#N)c2nc3ccccc3n2c1NCCCN1CCOCC1`, the Potency was inconclusive [inhibitor, partial curve, poor fit].
In the case of `Cc1ccc(-c2nnc(N3CCN(C(=O)COc4cccc(C)c4)CC3)c3ccccc23)cc1`, the Potency is reported as active: 8.28 µM.
For `Cc1csc(NC(=O)CNS(=O)(=O)c2cccs2)n1`, the Potency was inconclusive [inhibitor, single point].
For `COc1ccccc1CNC(=O)C(C)Sc1ccsc1[N+](=O)[O-]` (stereo not given), the Potency was inconclusive [inhibitor, partial curve, poor fit].
In the case of `C=CCn1c(=O)c2ccccc2n2c(SCC(=O)NCC)nnc12`, the “activity change, negative = inhibition” value is reported as inactive: -2.37%.
With `COC(=O)C1CC23C=CCN4CCC5(c6ccccc6NC15C2C)C43` (stereo not given) the Potency was active: 1.47 µM.
In the case of `CCCCC(CC)CCC(CC(C)C)OS(=O)(=O)O` (stereo not given), the “activity change, negative = inhibition” value is reported as inactive: -5.76%.
With `O=S1(=O)CCC(N=Nc2c(O)n(Cc3ccccc3)c3ccccc23)C1` (stereo not given) the Potency was inconclusive [inhibitor, single point].
In the case of `COc1ccc(CCNC(=O)COC(=O)/C=C/c2ccc(OC)c(OC)c2)cc1`, the “activity change, negative = inhibition” value is reported as inactive: -7.59%.
For `CCOc1ccc(-n2nc3c(SCCN4CCCC4)nnc(C)c3c2C)cc1`, the Potency was inconclusive [inhibitor, single point].
